The values that follow come from ChEMBL document CHEMBL1157539, “Thousands of chemical starting points for antimalarial lead identification” (Nature, 2010).

Molecules are shown by their SMILES. The full ranking holds about 13,000 compounds; the median of “IFI” is about 4, and the highest 2% start at about 17. This is one part of the list.

The nature of this assay: GSK_TCMDC: Inhibition Frequency Index (IFI). The number of non-kinase HTS assays where a compound showed > 50 % inhibition, expressed as a percentage of the number of such assays in which the compound was tested (-0 is zero). The format is functional.
Turning to `COc1nc2c(N3CCN(CCNCc4ccc5c(n4)NC(=O)CO5)CC3)ccnc2cc1F`, the IFI stood at 1.6%.
Then `COC(=O)c1cc(C(=O)CN(Cc2ccccc2)C(C)C)ccc1O`, with 1.39%; and `CC(=NNC(=N)N)c1ccc2c(ccc3ccccc32)c1`, with 7.91%.
`CCCCCCN1CCN(Cc2cccc(NC(=O)c3cc4ccccc4o3)c2)CC1` displayed an IFI of 4.83%.
On to `CNC(=O)c1ccccc1Nc1nc(Nc2cccc(CS(C)(=O)=O)c2)ncc1C`, for which the IFI was determined as 3.85%.
Compound `O=C1C(c2ccccc2)=C(Nc2cccc(OC(F)(F)C(F)F)c2)c2ccccc21` displayed an IFI of 0.74%.
For `Cc1ccc(-c2cnc(N)c3cc(-c4ccnc(N)n4)ccc23)cc1`, the IFI came out at 8.7%.
With `CS(=O)(=O)c1ccc(-c2cnc(N)c(-c3cccc(CO)c3)c2)cc1`, the IFI amounted to 0%.
Consider `Cc1[nH]c(C)c(-c2ccc(OCCCCSc3ccncc3)cc2)c(=O)c1Br`, for which the IFI was 1.82%.
Turning to `Cn1cncc1C(=O)Nc1ccc(-c2ccc(-c3nc4cc(C(F)(F)F)ccc4[nH]3)cc2)cc1`, the IFI came out at 3.57%.
`CCOC(=O)NC1=NC(=N)N(OCCCOc2cc(Cl)c(Cl)cc2Cl)C(C)(C)N1` yielded an IFI of 5.76%.
The compound `COc1ccc(Nc2ncc3c(-c4ccc(NC(=O)c5cccc(C(F)(F)F)c5)cc4)c[nH]c3n2)cc1OC` gave an IFI of 4.69%.
With `O=C(NCc1cccc(F)c1)Nc1ccc(-c2ccc(-c3nc4cc(C(F)(F)F)ccc4[nH]3)cc2)cc1`, the IFI worked out at 2.02%.
In the case of `CCCC(C)Nc1nc(C)cc(N[C@@H](Cc2ccccc2)C(=O)NCCc2ccccc2)n1` (stereo not given in full), the IFI was determined as 11.1%.
Consider `O=C(NCC1CCN(Cc2ccc3c(c2)OCCO3)C1)c1cc(-c2cccc(C(F)(F)F)c2)cs1` (stereo not given), for which the IFI came out at 8%.
For `COc1cccc(C(=O)NCc2nnc(S)n2-c2ccc(Cl)c(Cl)c2)c1`, the IFI amounted to 1.42%.
Regarding `Cc1cc(=O)[nH]c(-n2nc(C)cc2NC(=O)C2(c3ccc(Cl)cc3)CCCC2)n1`, the IFI was 19.2%.
For the compound `Cc1nnsc1C(=O)Nc1ccc(-c2ccc(-c3nc4cccc(C)c4[nH]3)s2)cc1`, the IFI is 7.14%.
In turn, `CCN(CC)c1ccc(-c2nc3cc(Cl)cnc3[nH]2)cc1` showed an IFI of 6%.
Consider `CN(C)CCOc1cccc(NC(=O)Nc2ccc(-c3ccccc3)cc2)c1`, for which the IFI worked out at 3.65%.
Turning to `Cc1cc(C(F)(F)F)n2nc(C(=O)N(Cc3cncn3Cc3ccccc3F)CC3CC3)cc2n1`, the IFI is -0%.
Consider `O=C(Nc1ccc(Cl)cc1)c1cccc(S(=O)(=O)NC2CCN(CC3CCCCC3)C2)c1` (stereo not given), for which the IFI was determined as 13.9%.
On to `COc1ccc2nccc([C@@H](O)CN3CCC(NC(=O)c4ccc(CN5CCN(c6cccc(C)c6)CC5C)cc4)CC3)c2c1` (stereo not given in full), for which the IFI was found to be 13%.
Then `CCCC(C)NC(=O)[C@H](Cc1ccccc1)NC(=O)c1ccc(O)c(-c2ccc(OC)cc2)c1` (stereo not given in full), with 2.24%.
For `Cc1cnc(CN(Cc2ccc(-c3ccc(CNCCc4ccc(S(C)(=O)=O)cc4)cn3)cc2)C(=O)c2nn(-c3ccccc3)nc2C)cn1` the value was 4.23%.
